Measured values taken from PubChem BioAssay AID1345083 (National Center for Advancing Translational Sciences (NCATS), 2018).
Values joined by “and” are separate entries in the source; they are usually repeats but may differ in a detail not shown here. Equal values may be shown once. Out of some 94,000 compounds screened, about 6,200 (6.6%) were called active. Inconclusive results, whose numbers are uncertain, are shown with a selection of clear calls. Calls follow the shape of the dose curve; as a rule, active = well fitted inhibition curve with a large enough effect; inconclusive = small, poorly fitted or top-dose-only effect; inactive = flat fitted curve, though single readings scatter. Potencies beside an inconclusive call are fits to weak or partial responses and may not hold up.
% is scaled to controls: 0 for no effect and ±100 for the full control effect; potency is read from the fitted curve at half-maximal effect; tags tell the direction and shape of the fitted curve.

Assay: Cytotoxic Profiling in HEK 293 Cell Line of Diverse Libraries Using Quantitative High-Throughput Screening; also: nearly all actives have a fitted effect of over 60% in size
Details: HEK 293 viability, ATP luminescence (CellTiter-Glo), 48-72 h; activity change, negative = cytotoxicity: at 115 µM (top of the series) unless noted; series mostly up to 115 µM
Outline: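 Luminescence from cellular ATP, measured with CellTiter-Glo, indicates HEK 293 viability. Cells plated at 250 cells/well are treated with compound for 48 or 72 hr at 37 degree Celsius before reagent addition.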
For `CCCCC1CN(c2ccc(Cl)cc2)C(=O)CN1C(=O)CNC(=O)OC` (stereo not given), the “activity change, negative = cytotoxicity” value was inactive: 2.66%.
For `O=C(NCc1ccc(F)cc1)c1cc(-c2ccc(Cl)cc2Cl)c2nncn2n1`, the Potency was active: 89.1 µM.
For `O=C(N1CCC(c2n[nH]c(=O)n2Cc2ccc(F)cc2)CC1)C1(c2ccccc2)CC1`, the Potency was inconclusive: 89.1 µM [inhibitor, partial curve, poor fit].
In the case of `COc1ccccc1C(=O)NCCNC(=O)c1cccc(-c2ccsc2)c1`, the Potency is reported as inconclusive: 56.2 µM [inhibitor, partial curve, poor fit].
With `CC(C)N1CC(C(=O)NCc2cccc(Cl)c2)NC1=O` (stereo not given) the “activity change, negative = cytotoxicity” value was inactive: -8.85% [at 172 µM].
For `O=C(CCc1nc2ccccc2[nH]1)N1CCCC(Cc2noc(-c3ccccc3)n2)C1` (stereo not given), the Potency was active: 22.4 µM.
For `Cn1cc(CC(=O)N2CCCc3ncc(C(=O)NCC4CCCO4)cc32)c2ccccc21` (stereo not given), the Potency was inconclusive: 44.7 µM [inhibitor, full curve].
For `OCC1(CCOc2ccccc2)CCN(c2nnnn2-c2ccccc2)CC1`, the Potency was inconclusive: 79.4 µM [inhibitor, partial curve].
In the case of `CN1C(=O)CCC2(CNC(=O)CCc3nc4ccccc4[nH]3)CCC=C12` (stereo not given), the “activity change, negative = cytotoxicity” value is reported as inactive: -8.71%.
With `Cc1nc(-c2ccc(F)cc2)n(Cc2ccccc2F)c(=O)c1CCO` the Potency was inconclusive: 50.1 µM [inhibitor, partial curve, poor fit].
For `COCCCn1c(=O)c(C(=O)N2CCC(c3ccccc3)CC2)nc2cccnc21`, the “activity change, negative = cytotoxicity” value was inactive: -0.233%.
For `c1ccc(Cn2cc(CN3CCN(c4ccncc4)CC3)c(-c3cc4ccccc4o3)n2)cc1`, the Potency was active: 39.8 µM.
For `CC(C)C[C@H](CO)NC(=O)C[C@@H]1c2nc(NC(=O)C(C)(C)C)sc2C[C@@H]2[C@](C)(CO)[C@H](O)CC[C@]21C`, the “activity change, negative = cytotoxicity” value was inactive: -25.2%.
For `CN(C(=O)c1cnc2n1CCN(CCc1ccccc1)CC2)c1ccccc1`, the Potency was inconclusive: 112 µM [inhibitor, partial curve, poor fit].
In the case of `O=C(C1CCC1)N1CCC(c2noc(-c3ccncc3)n2)C1` (stereo not given), the “activity change, negative = cytotoxicity” value is reported as inactive: 14.3%.
With `CCNC(=O)O[C@@H]1CO[C@H]2[C@@H]1OC[C@@H]2Nc1nccc(-c2ccc(-c3ccccc3)cc2)n1` the Potency was active: 10 µM.
With `CN(C)c1ncc2c(n1)C(C)(C(=O)NCC1CC1)CCC2` (stereo not given) the Potency was inconclusive: 100 µM [inhibitor, partial curve].
In the case of `O=C(NCCCc1ccccc1)c1cn2cc(-c3ccc(C(F)(F)F)cc3)sc2n1`, the Potency is reported as inconclusive: 8.91 µM [inhibitor, full curve, poor fit].
In the case of `COc1ccc(CNCc2ccc(C)s2)cc1OCC(O)CN1CCCCC1` (stereo not given), the Potency is reported as active: 79.4 µM.
For `Cc1cc(=O)n(CC(=O)Nc2ccc(F)c(Cl)c2)c(N2CCc3ccccc3C2)n1`, the Potency was inconclusive: 79.4 µM [inhibitor, single point].
For `COCC1(CNc2cc(C3CC(O)C3)nc(C)n2)CCCC1` (stereo not given), the Potency was inconclusive: 31.6 µM [inhibitor, single point].
In the case of `CCC1Oc2ccc(NC(=O)Cc3ccc(F)cc3)cc2CN(Cc2ccc(Cl)cc2)C1=O` (stereo not given), the Potency is reported as inconclusive: 31.6 µM [inhibitor, full curve].
With `O=C(Cn1nc(-c2ccco2)ccc1=O)NC1CCCc2c1[nH]c1c(Cl)cccc21` (stereo not given) the “activity change, negative = cytotoxicity” value was inactive: 1.59%.
For `CCN1c2cc(C(=O)Nc3ccc(F)c(C)c3)ccc2C(=O)N2CCCCC21` (stereo not given), the Potency was inconclusive: 44.7 µM [inhibitor, partial curve, poor fit].
For `Cn1cc(CN2CCCN(S(=O)(=O)c3ccccc3)CCC(=O)NCC2)c2ccccc21`, the Potency was inconclusive: 89.1 µM [inhibitor, partial curve, poor fit].
For `CNC(=O)c1cc(C2CC2)nc2onc(C3CCN(C(=O)c4ccccn4)C3)c12` (stereo not given), the “activity change, negative = cytotoxicity” value was inactive: -14.1%.
With `COc1ccc(OCc2nc(C)c(CCO)c(=O)n2CC(=O)Nc2cccc(C)c2C)cc1` the Potency was inconclusive: 56.2 µM [inhibitor, partial curve, poor fit].
For `CN(CC1CCOCC1)C(=O)CCCc1ccccc1`, the “activity change, negative = cytotoxicity” value was inactive: 2.09%.
With `Cc1cccc(N2CCN(c3ncncc3-c3nc(-c4ccccc4)no3)CC2)c1` the Potency was inconclusive: 39.8 µM [inhibitor, partial curve, poor fit].
With `CC(C)(O)CCc1cccc(C(=O)N(Cc2ccc3c(c2)OCO3)C2CC2)c1` the Potency was inconclusive: 50.1 µM [inhibitor, partial curve, poor fit].
In the case of `Cc1ncsc1CN1CCCN(Cc2ccncc2)C(c2ccccc2)CC(=O)NCC1` (stereo not given), the “activity change, negative = cytotoxicity” value is reported as inactive: -3.06%.
For `O=C1NCc2ccccc2CC12CCN(Cc1cccc(F)c1F)CC2`, the Potency was inconclusive: 89.1 µM [inhibitor, single point].
For `COc1ccc(CNC(=O)c2ccc(Cn3ccn4nc5c(c4c3=O)CCCC5)cc2)c(OC)c1`, the Potency was inconclusive: 25.1 µM [inhibitor, full curve].
In the case of `COCCc1noc(C2Cc3ccccc3N2C(=O)Nc2ccc3c(c2)OCCO3)n1` (stereo not given), the Potency is reported as inconclusive: 31.6 µM [inhibitor, partial curve].
With `CC(=O)NCc1nnc2n1C(C(=O)NCc1ccc(F)cc1)CC2` (stereo not given) the “activity change, negative = cytotoxicity” value was inactive: -24% [at 172 µM].
With `CC(C)NC(=O)c1ccc2c(c1)C1(CCN(CC3CC3)C1)CN2Cc1ccccc1` (stereo not given) the Potency was inconclusive: 70.8 µM [inhibitor, full curve, poor fit].
With `Cc1ccc(Nc2ccnc(N3CCC(NC(=O)c4ccc(Cl)nc4)CC3)n2)cc1` the Potency was active: 39.8 µM.
For `Cc1ccccc1C(=O)N1CCCN(c2cc(-c3ccc(F)cc3)[nH]n2)CC1`, the Potency was inconclusive: 50.1 µM [inhibitor, partial curve, poor fit].
In the case of `O=C(c1ccccc1)N1CCC2(CC1)CC(c1cccnc1)=NO2`, the Potency is reported as “inactive and inconclusive: 126 µM [inhibitor, single point]”.
In the case of `COc1ccc(OC)c(CNC(=O)CCC[C@H]2NC[C@@H]3C[C@H]2CN(Cc2ccccc2)C3)c1`, the Potency is reported as inconclusive: 100 µM [inhibitor, single point].
With `COc1ccc(-c2nc(-c3ccccc3)nc3c2CN(C(=O)C2CC2)CC3)cc1` the Potency was inconclusive: 50.1 µM [inhibitor, partial curve, poor fit].
For `c1ccc2c(c1)CCN2C1CN(Cc2cccc3ccccc23)C1`, the Potency was inconclusive: 100 µM [inhibitor, partial curve, poor fit].
With `COc1ccccc1CN1CCC2(CC1)OC(=O)N(Cc1ccccc1)C2(C)c1ccccc1` (stereo not given) the Potency was active: 50.1 µM.
For `CN(C)c1cccc(-c2cnc(Nc3cccnc3)c3c2CCO3)c1`, the Potency was active: 63.1 µM.
In the case of `O=C1N2CCCC2CN1C1CCN(Cc2ccc(OC(F)(F)F)cc2)CC1` (stereo not given), the Potency is reported as active: 39.8 µM.
In the case of `COc1ccc(-c2cc(C[C@H]3CNCC[C@H]3CC(=O)NCc3ccc4c(c3)OCO4)no2)cc1`, the Potency is reported as inconclusive: 56.2 µM [inhibitor, partial curve, poor fit].
For `CCc1cnc(N2CCC(Oc3cnc4c(ccn4CCN[S+](C)(=O)[O-])c3)CC2)nc1`, the Potency was inconclusive: 39.8 µM [inhibitor, partial curve, poor fit].
In the case of `CC1=C(C(=O)OC(C)C)C(c2ccc(C)cc2)N2C(CC(=O)N(C)Cc3ccco3)=CSC2=N1` (stereo not given), the Potency is reported as inconclusive: 56.2 µM [inhibitor, partial curve, poor fit].
With `CCC(=O)C(=O)NCc1cc2c(nc1OC)CN(CCc1ccccn1)C2=O` the “outcome” value was “inactive”.
With `O=C(c1ccc(F)cc1)N1CCN(C(=O)c2nnn3c2COC(c2ccc(Cl)cc2)C3)CC1` (stereo not given) the Potency was active: 39.8 µM.
In the case of `COc1cccc(CN2CCc3nc(C(=O)Nc4nc(C)cs4)oc3CC2)c1`, the Potency is reported as inconclusive: 100 µM [inhibitor, partial curve].
In the case of `CC(C)(C)OC(=O)NCCCC(=O)N1CCN(c2cccc(C=O)c2)C(=O)C1`, the Potency is reported as inconclusive: 89.1 µM [inhibitor, single point].
With `COCCNC(=O)c1cccc2c1CCN2C(=O)C1CC1` the “activity change, negative = cytotoxicity” value was inactive: -2.02%.
In the case of `CN1C(=O)C(c2ccccc2)CC12CCN(Cc1ccc(C#N)cc1)CC2` (stereo not given), the Potency is reported as inconclusive: 89.1 µM [inhibitor, partial curve, poor fit].
In the case of `CCOc1cccc(CNC(=O)CC2CCCCN(Cc3ccccc3)C2=O)c1` (stereo not given), the Potency is reported as inconclusive: 56.2 µM [inhibitor, partial curve, poor fit].
For `O=C(C[C@@H]1CCNC[C@@H]1Cc1cc(CN2CCOCC2)on1)NCCN1CCOCC1`, the “activity change, negative = cytotoxicity” value was inactive: -2.97%.
With `COC(=O)CNC(=O)c1nc(-c2ccc(F)cc2)c2cnccn12` the “activity change, negative = cytotoxicity” value was inactive: -22.6% [at 172 µM].
In the case of `NC1(C(=O)N2CCCC(CCc3cccc(C(F)(F)F)c3)C2)CC1` (stereo not given), the Potency is reported as inconclusive: 50.1 µM [inhibitor, partial curve, poor fit].
With `Cn1cc(CC(=O)N2CCCc3ncc(C(=O)NCCc4ccccc4)cc32)c2ccccc21` the Potency was inconclusive: 39.8 µM [inhibitor, full curve, poor fit].
For `O=C(Nc1ccccc1)NC1CCN(Cc2cccc(-c3ccc(F)c(F)c3)c2)CC1`, the Potency was active: 20 µM.
With `CS(=O)(=O)c1ccc(-c2cnc([C@@H]3COCCN3Cc3ccc(Cl)cc3)[nH]2)cc1` the Potency was active: 79.4 µM.
In the case of `Cc1ccc(-c2nc(C3CC(=O)N(c4ccc(F)cc4)C3)no2)c(C)c1` (stereo not given), the Potency is reported as inconclusive: 56.2 µM [inhibitor, partial curve, poor fit].
With `COc1ccc(CC(=O)N2Cc3ccccc3CC3(CCN(C)CC3)C2)cc1` the “activity change, negative = cytotoxicity” value was inactive: -9.11%.
In the case of `COc1ccc(Cn2c(=O)c(C(=O)N3CCN(C(=O)c4cccc(Cl)c4)CC3)nc3cccnc32)cc1`, the Potency is reported as inconclusive: 56.2 µM [inhibitor, partial curve, poor fit].
In the case of `COc1ccc(NC(=O)c2ccc3c(c2)NC(C)(COCC2CC2)CO3)cn1` (stereo not given), the Potency is reported as inconclusive: 63.1 µM [inhibitor, partial curve, poor fit].
